Tested on: GNCA β-lactamase
Details: read-out: KM (μM^-1)

Km: 15.1 ± 0.7 µM
Structure (SMILES): CC1(C)S[C@@H]2[C@H](NC(=O)Cc3ccccc3)C(=O)N2[C@H]1C(=O)O [benzylpenicillin]

Source: publication PMC8617505 (Proceedings of the National Academy of Sciences of the …, 2021)
